# From a collection of fitness landscapes (doi:10.1016/j.celrep.2020.107928)
# Over roughly 81,000 sequences, “one-hybrid fitness for binding parS DNA” has its median near -0.17; the highest 2% begin near 0.51. The list shows a part of the results.
# B1: Caulobacter ParB omega fusion; a variant is named by its letters at X, in order, B8GW30 (parent)
# chain: MESVVVGEPGMSEGRRGLGRGLSALLGEVDAAPAQAPGEQLGGSREAPIEILQRNPDQPRRTFREEDLEDLSNSIREKGVLQPILVRPSPDTAGEYQIVAGERAWRAAQRAGLKTVPIMVRELDDLAVLEIGIIENVQRADLNVLEEALSYKVLMEKFERTQENIAQTIGKSXSHVANXMRLLXLPDEVQSYLVSGELTAXHARAIAAAADPVALAKQIIEGGLSVRETEALARKAPNLSAGKSKGGRPPRVKDTDTQALESDLSSVLGLDVSIDHRGSTGTLTITYATLEQLDDLCNRLTRGI
# Variants of: B1
# Assay: one-hybrid fitness for binding parS DNA (scaled: cognate 1, non-cognate 0); higher = stronger binding
# Conditions: with parS DNA site
# Method in brief: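 Fitness here means the log change in variant-to-wild-type read ratio between plasmids sequenced before and after selection. That scale was set so cognate equals 1 and non-cognate equals 0. The selection was a bacterial one-hybrid screen of Caulobacter ParB libraries, four specificity codons randomised, in E. coli USO carrying a HIS3 reporter with the site 19 bp from the promoter, grown 48 hours at 37°C on M9-minus-histidine with 0.1 mM IPTG and 5 mM 3-AT.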
row,Variant,one-hybrid fitness for binding parS DNA
1,FLRA,≤ 0.2
2,TGFR,≤ 0.2
3,TTGI,≤ 0.2
4,EVML,≤ 0.2
5,VNVV,≤ 0.2
6,LTIR,≤ 0.2
7,VACS,≤ 0.2
8,RAWA,0.598
9,AYLL,≤ 0.2
10,PDNH,≤ 0.2
11,IRFW,≤ 0.2
12,QHGW,≤ 0.2
13,GHVV,≤ 0.2
14,QHHI,≤ 0.2
15,QEDV,≤ 0.2
16,RHWI,≤ 0.2
17,FGCS,≤ 0.2
18,WEPV,≤ 0.2
19,HCTR,≤ 0.2
20,WNSC,≤ 0.2
21,GTRA,≤ 0.2
22,CARK,≤ 0.2
23,QAQV,≤ 0.2
24,VCFS,≤ 0.2
25,HRHE,≤ 0.2

row,Variant,one-hybrid fitness for binding parS DNA
1,PTYG,≤ 0.2
2,PAWK,≤ 0.2
3,NLKT,≤ 0.2
4,VHVR,≤ 0.2
5,SDVC,≤ 0.2
6,GPDD,≤ 0.2
7,NRKH,≤ 0.2
8,NRTK,≤ 0.2
9,KTHA,≤ 0.2
10,SGFT,≤ 0.2
11,MKDF,≤ 0.2
12,VNNT,≤ 0.2
13,GLAG,≤ 0.2
14,RADL,≤ 0.2
15,WTWT,≤ 0.2
16,WHVG,≤ 0.2
17,VFSM,≤ 0.2
18,RRIL,≤ 0.2
19,WMDS,≤ 0.2
20,RYDG,0.913
21,HKKA,≤ 0.2
22,DTLS,≤ 0.2
23,PAPA,≤ 0.2
24,PGTS,≤ 0.2
25,ESGG,≤ 0.2

row,Variant,one-hybrid fitness for binding parS DNA
1,STNN,≤ 0.2
2,NTPK,≤ 0.2
3,DQPF,≤ 0.2
4,PMVC,≤ 0.2
5,YQMR,≤ 0.2
6,ESHR,≤ 0.2
7,CIRG,≤ 0.2
8,PPVF,≤ 0.2
9,NMAY,≤ 0.2
10,CSLV,≤ 0.2
11,LHLC,≤ 0.2
12,ALMF,≤ 0.2
13,SSTD,≤ 0.2
14,VKHA,≤ 0.2
15,LAHR,≤ 0.2
16,NNDI,≤ 0.2
17,RVVN,0.41
18,RSHI,≤ 0.2
19,ENTL,≤ 0.2
20,SQTP,≤ 0.2
21,TDAE,≤ 0.2
22,PAMD,≤ 0.2
23,LFSP,≤ 0.2
24,VLQK,≤ 0.2
25,RVGT,0.924

row,Variant,one-hybrid fitness for binding parS DNA
1,HCGT,≤ 0.2
2,TAYL,≤ 0.2
3,DKLF,≤ 0.2
4,TSLP,≤ 0.2
5,ADNR,≤ 0.2
6,RPYE,≤ 0.2
7,VLAT,≤ 0.2
8,EHDS,≤ 0.2
9,VTNM,≤ 0.2
10,IRMF,≤ 0.2
11,QRDA,≤ 0.2
12,NLES,≤ 0.2
13,FPPW,≤ 0.2
14,HPRM,≤ 0.2
15,RQLH,≤ 0.2
16,EQNG,≤ 0.2
17,RWKM,0.377
18,SGYD,≤ 0.2
19,MPRD,≤ 0.2
20,DHVC,≤ 0.2
21,HVPW,≤ 0.2
22,WNLA,≤ 0.2
